Data as given in article PMC4336329 (PLoS ONE, 2015).
Hit rate of the full screen: of about 310,000 compounds, about 2,200 (0.71%) showed an effect of 50% or more. Effects have a minus sign here. This is one part of the list.

These molecules were tested against human ether-à-go-go-related gene (hERG) potassium channel (human, UniProt Q12809) (assay: primary screen, population patch clamp on CHO cells stably expressing hERG).
Chain of human ether-à-go-go-related gene (hERG) potassium channel (Q12809 whole entry, looked up): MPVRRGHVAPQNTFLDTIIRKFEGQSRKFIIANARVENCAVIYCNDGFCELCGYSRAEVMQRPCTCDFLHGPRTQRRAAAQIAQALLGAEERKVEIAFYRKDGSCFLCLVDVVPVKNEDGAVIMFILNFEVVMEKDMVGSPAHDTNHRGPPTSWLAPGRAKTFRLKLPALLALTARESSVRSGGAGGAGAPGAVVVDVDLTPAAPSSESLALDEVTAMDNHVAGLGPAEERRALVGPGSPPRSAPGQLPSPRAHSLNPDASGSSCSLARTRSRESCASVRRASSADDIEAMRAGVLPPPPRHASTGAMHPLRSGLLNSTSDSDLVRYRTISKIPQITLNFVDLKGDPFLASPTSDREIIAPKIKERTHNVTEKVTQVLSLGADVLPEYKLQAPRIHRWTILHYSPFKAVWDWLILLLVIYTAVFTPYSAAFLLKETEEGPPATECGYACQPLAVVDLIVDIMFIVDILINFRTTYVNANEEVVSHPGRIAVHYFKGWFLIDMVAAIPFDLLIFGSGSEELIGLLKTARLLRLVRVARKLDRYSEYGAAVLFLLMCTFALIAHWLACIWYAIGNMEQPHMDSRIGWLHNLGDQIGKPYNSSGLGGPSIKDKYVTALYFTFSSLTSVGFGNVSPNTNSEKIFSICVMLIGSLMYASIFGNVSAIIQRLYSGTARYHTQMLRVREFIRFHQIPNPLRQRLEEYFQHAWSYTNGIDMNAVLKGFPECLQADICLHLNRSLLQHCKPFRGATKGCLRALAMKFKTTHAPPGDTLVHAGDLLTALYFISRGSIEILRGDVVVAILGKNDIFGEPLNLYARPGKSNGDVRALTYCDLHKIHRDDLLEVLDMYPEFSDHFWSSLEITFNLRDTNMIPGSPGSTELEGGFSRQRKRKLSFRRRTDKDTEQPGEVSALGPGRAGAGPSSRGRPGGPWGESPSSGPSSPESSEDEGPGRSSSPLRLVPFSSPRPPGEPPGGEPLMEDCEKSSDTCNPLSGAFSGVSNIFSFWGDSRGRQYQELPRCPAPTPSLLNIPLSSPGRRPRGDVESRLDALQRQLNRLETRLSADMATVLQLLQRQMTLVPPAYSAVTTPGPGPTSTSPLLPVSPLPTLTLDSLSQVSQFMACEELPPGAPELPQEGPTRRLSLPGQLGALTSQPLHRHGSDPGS

| Structure (SMILES) | hERG current change (%, negative = inhibition) at 1uM |
| --- | --- |
| COC(=O)c1c(C)oc(C)c(C(=O)OC)c1=O | 1.88% |
| Cc1cc(C)n(C(=O)CSc2nc3ccccc3o2)n1 | 9.56% |
| Cc1ccccc1C(=O)NNc1ccc([N+](=O)[O-])cc1 | -10.6% |
| Cc1ccc(S(=O)(=O)N2CCC(=O)N(CCOC(=O)Nc3cccc(Cl)c3)CC2)cc1 | -4.62% |
| Nc1ccc(-c2cnc(-c3ccc(N)cc3)nc2)cc1 | 12.2% |
| CC1Cc2ccccc2N1C(=O)CCNS(=O)(=O)c1ccc2c(c1)CCC(=O)N2 (stereo not shown) | -11.8% |
| Cc1ccc(C(=O)Nc2nc3nc(-c4ccccc4)cc(=O)n3[nH]2)cc1 | 14.5% |
| CC(=O)c1ccc(OCC(O)CN(C)Cc2cccs2)cc1 (stereo not shown) | 4.2% |
| C=CCn1c(N)c(C(=O)NCc2cccnc2)sc1=S | -7.2% |
| CCCN(C(=O)CCNC(=O)c1ccc(Cl)cc1)c1c(N)n(Cc2ccccc2)c(=O)[nH]c1=O | 6.13% |
| CCCS(=O)(=O)c1nc(S(=O)(=O)c2ccc(C)cc2)c(NCCCN2CCOCC2)s1 | 7.31% |
| O=C(Nc1cccc2ncccc12)c1ccc(F)cc1 | 13.7% |
| CCOc1cc(/C=C2\SC(=NC)N(C)C2=O)cc(Cl)c1OC(C)=O | 4.56% |
| CC(C)(C)c1nc(Sc2ncccc2[N+](=O)[O-])n[nH]1 | 7.76% |
| Cc1nc2cc(Cl)ccc2c(=O)n1Cc1ccncc1 | 2.18% |
| CN(C)CCCNC(=S)N(CCCO)Cc1cc2cc3c(cc2[nH]c1=O)OCO3 | 15.9% |
| O=S(=O)(Cc1ccccc1)N1CCN(Cc2ccccc2)CC1 | 1.08% |
| NC(CSS(=O)(=O)O)=NCCC12CC3CC(CC(O)(C3)C1)C2 | 17.5% |
| COCCNC(=O)c1cn(C)c2ccc(S(=O)(=O)N3CCCCC3)cc2c1=O | 10.6% |
| Cc1ccc2c(CC(=O)OCC(=O)Nc3ccc(Cl)cn3)coc2c1 | 11% |
| O=C(NCC1CCCO1)c1ccc2c(=O)n(-c3ccccc3)c(=S)[nH]c2c1 (stereo not shown) | 4.15% |
| O=C(CSc1n[nH]c(=O)[nH]c1=O)N/N=C/c1ccccc1O | 18.9% |
| COC(=O)CSc1nc(C)c2ccc(OC)cc2n1 | 16.8% |
| Cc1ccc(CS(=O)Cc2ccc(C(=O)NCc3ccccc3)o2)cc1 (stereo not shown) | 11.1% |
| CCN=c1scc(-c2ccc3c(c2)NC(=O)CO3)n1N=C1CCCC1 | 4.07% |
